In the supplement of paper PMC3334620:
The full ranking holds about 33,000 sequences; the median of “E-score (-0.5 to 0.5)” is about -0.016, and the highest 2% start at about 0.32. The list shows a part of the results.

What follows are sequences tested against T1, Stp1 (UniProt B3LFK1) (assay: PBM E-score (8-mer binding enrichment) (E-score (-0.5 to 0.5)); higher = stronger / more preferred TF binding; most listed sequences are background and not binding sites). Details: protein concentration: 200 nM; construct: GST-full length.
T1 sequence: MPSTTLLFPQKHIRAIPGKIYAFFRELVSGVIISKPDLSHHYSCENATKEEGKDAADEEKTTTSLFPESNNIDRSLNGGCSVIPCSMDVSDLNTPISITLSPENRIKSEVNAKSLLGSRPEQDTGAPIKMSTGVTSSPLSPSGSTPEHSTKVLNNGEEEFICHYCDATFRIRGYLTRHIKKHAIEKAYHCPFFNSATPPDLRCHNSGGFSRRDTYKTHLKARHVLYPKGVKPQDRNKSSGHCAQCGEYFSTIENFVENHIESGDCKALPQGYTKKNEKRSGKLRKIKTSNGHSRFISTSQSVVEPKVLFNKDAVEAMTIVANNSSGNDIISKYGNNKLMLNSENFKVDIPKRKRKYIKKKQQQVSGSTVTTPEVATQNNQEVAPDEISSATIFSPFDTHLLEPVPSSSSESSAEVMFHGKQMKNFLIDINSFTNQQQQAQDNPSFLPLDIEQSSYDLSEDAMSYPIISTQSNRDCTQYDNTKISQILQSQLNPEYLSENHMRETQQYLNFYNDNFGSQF
How it was run: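 Using PURExpress in vitro transcription/translation, GST-tagged yeast transcription factors were made in full-length or DNA-binding-domain form. These were applied at about 100-200 nM to double-stranded universal all-10-mer Agilent arrays, and bound protein was detected with fluorescent anti-GST. Scans were normalised with masliner before the Universal PBM Analysis Suite assigned E-scores to ungapped eight-base words pooled with their reverse complements.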

Row | Sequence | PBM E-score
1 | AACTGTGA | 0.131
2 | ACCCCTCA | -0.347
3 | TGACAAAA | 0.138
4 | TGCGCCCA | -0.00186
5 | TCACGGGA | 0.0905
6 | AGATACAT | 0.121
7 | GGAGGTCA | -0.123
8 | AGGACCAT | -0.113
9 | CATTAATC | 0.0853
10 | AAACATAC | 0.067
11 | AGTCCTAC | -0.0585
12 | GATCATAA | 0.0789
13 | ATGCGATC | -0.156
14 | CCTACGGC | 0.39
15 | CACGACTG | -0.193
16 | TCGCGGCA | 0.346
17 | ACCGTTGC | -0.132
18 | TACGGTCA | -0.00514
19 | AGGTTGCG | -0.138
20 | CGAGCTAC | -0.21
21 | CATAAGAA | 0.144
22 | GGAGCCTA | 0.0295

Row | Sequence | PBM E-score
23 | GAGGCGCA | 0.338
24 | GTATAAAC | 0.203
25 | AAGTGCGC | 0.0718
26 | TAAATGGA | -0.0135
27 | GAAGACCC | -0.326
28 | CCCAAATA | -0.153
29 | CTAATAGC | 0.00844
30 | AAATAGGC | 0.129
31 | ATGTCAAG | -0.095
32 | AGTATGGG | -0.147
33 | ACCATACT | -0.121
34 | CGACTCCC | -0.209
35 | TACCTTGA | -0.0177
36 | AATTATAA | 0.118
37 | ATACCGAT | -0.0441
38 | TAAGAAGA | 0.149
39 | AAAGATGC | 0.164
40 | ATGAAAGG | 0.033
41 | CCACGCAG | -0.0441
42 | GCGAACCA | -0.0941
43 | TCTACACA | -0.00471
44 | AAAACCCC | -0.139

Row | Sequence | PBM E-score
45 | GCGGTTTA | 0.156
46 | ATGCGATA | 0.105
47 | ATGCGAGG | 0.144
48 | AATCCTAG | -0.0474
49 | GCCTTGAA | -0.111
50 | CCCGCAGA | 0.06
51 | TCCCCCCA | -0.372
52 | CAAATGAA | 0.17
53 | AGCCACGC | -0.00665
54 | CAAGGGCC | -0.169
55 | AAGTTCCA | -0.0474
56 | ATAGTTTG | 0.121
57 | CCGCGACC | -0.0636
58 | GAGGCTCC | 0.149
59 | TAAAGTTA | 0.0724
60 | AAATTGCC | 0.245
61 | CAGCAACG | 0.247
62 | GGACGACC | -0.256
63 | AGCTAGAA | -0.0847
64 | AGCTGAGA | -0.0837
65 | AAACGTTC | 0.0506
66 | ATGGCTCC | 0.0184

Row | Sequence | PBM E-score
67 | CCCGGTCG | -0.278
68 | CTGATCTA | -0.123
69 | ACCGCTCT | -0.184
70 | AGCAGCGG | 0.0735
71 | CTACCCCA | -0.114
72 | AATCGTAA | 0.0424
73 | CCAGCATC | -0.178
74 | CATGAATC | -0.022
75 | CGCTTGTC | -0.238
76 | GAGACCGC | -0.138
77 | GTGCTGTA | -0.00597
78 | TCTGGTCA | -0.0173
79 | AACACTGC | -0.00296
80 | ACTACGGA | -0.0355
81 | ATTCAAGC | 0.0278
82 | ATCGGTAG | -0.0353
83 | ACCAGGGC | -0.19
84 | CAATCATA | 0.0533
85 | TAAGGGCA | 0.105
86 | CACCAAAA | 0.25
